# Over roughly 33,000 sequences, “E-score (-0.5 to 0.5)” has its median near -0.012; the highest 2% begin near 0.29. The list shows a part of the results.
# Biological target: T1, Ybr033w (UniProt P38073)
# T1 sequence: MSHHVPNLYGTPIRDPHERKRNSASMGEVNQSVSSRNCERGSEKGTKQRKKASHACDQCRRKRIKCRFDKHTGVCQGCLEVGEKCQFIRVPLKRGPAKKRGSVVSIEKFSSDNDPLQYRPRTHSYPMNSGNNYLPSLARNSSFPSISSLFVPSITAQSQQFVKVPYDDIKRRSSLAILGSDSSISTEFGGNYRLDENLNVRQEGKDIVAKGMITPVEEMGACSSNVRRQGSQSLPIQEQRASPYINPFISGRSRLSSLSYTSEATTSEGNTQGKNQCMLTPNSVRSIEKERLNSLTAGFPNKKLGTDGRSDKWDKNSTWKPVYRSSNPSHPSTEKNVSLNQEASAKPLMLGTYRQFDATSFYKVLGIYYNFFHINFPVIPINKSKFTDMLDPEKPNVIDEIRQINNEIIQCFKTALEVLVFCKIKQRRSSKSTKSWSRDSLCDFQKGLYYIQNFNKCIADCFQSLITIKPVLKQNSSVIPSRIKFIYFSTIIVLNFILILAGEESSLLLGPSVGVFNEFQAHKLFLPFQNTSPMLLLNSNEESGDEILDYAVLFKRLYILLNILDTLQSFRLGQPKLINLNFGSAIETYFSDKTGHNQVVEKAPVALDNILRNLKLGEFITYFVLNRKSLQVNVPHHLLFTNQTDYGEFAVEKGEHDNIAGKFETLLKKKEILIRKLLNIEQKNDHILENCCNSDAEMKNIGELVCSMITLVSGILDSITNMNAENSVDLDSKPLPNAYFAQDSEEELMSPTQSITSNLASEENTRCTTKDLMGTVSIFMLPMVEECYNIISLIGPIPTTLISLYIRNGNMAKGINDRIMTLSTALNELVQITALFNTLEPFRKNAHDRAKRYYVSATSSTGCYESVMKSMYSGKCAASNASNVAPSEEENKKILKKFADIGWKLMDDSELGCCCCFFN
# Experiment: PBM E-score (8-mer binding enrichment) (E-score (-0.5 to 0.5)); higher = stronger / more preferred TF binding; most listed sequences are background and not binding sites
# Details: protein concentration: 200 nM; construct: GST-full length
# Outline: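 For each ungapped eight-base word taken together with its reverse complement, the Universal PBM Analysis Suite assigned an E-score. Binding data came from GST-tagged yeast transcription factors, applied at about 100-200 nM, on universal all-10-mer Agilent arrays made double-stranded by primer extension. Fluorescent anti-GST marked bound protein, and scans were normalised with masliner.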
row,Sequence,PBM E-score
1,AGAGTATG,0.0606
2,CAGTAGCC,-0.179
3,AAATCGCT,-0.173
4,AGGTTAAC,0.144
5,GAACGAAA,-0.00524
6,CATTGACG,0.0429
7,CCGTAGCA,-0.0749
8,ATAGAGTC,-0.172
9,ACCTTTGC,0.0369
10,GGTACTTA,-0.0033
11,CCAGTGGG,-0.297
12,ACACGTCC,-0.334
13,CCGTCCGA,-0.141
14,AACATGTC,0.133
15,GACAGACA,0.0604
16,ATTATCTG,0.218
17,ATTGCGGC,-0.152
18,AGTTTATC,0.363
19,CTTTGCCA,-0.167
20,CTGGAGGC,-0.043
21,CCCGGGAA,-0.133
22,AATTCTTA,0.146
23,CCATCGTA,0.0563
24,ATTCGGGA,0.0738
25,ACCGCAAA,0.135

row,Sequence,PBM E-score
1,AATAGAGG,-0.0249
2,AAGTTTGG,0.184
3,ATCTTACG,0.0253
4,CCGCCGAG,-0.0357
5,AACTGCGG,0.0628
6,CGACAACG,-0.0707
7,ATTAACGA,0.283
8,ACGCAATG,0.0098
9,CGGCCATA,-0.17
10,ATAGCACC,-0.0174
11,CGCCATAG,-0.227
12,CAGAGTCG,-0.191
13,CAGCATAG,-0.0334
14,ATGTAAAG,0.074
15,AGGTCTTA,-0.105
16,GAGACCTC,-0.0928
17,CACGGTGA,0.0391
18,CTCGGCGC,0.0178
19,ACCTCGCA,-0.136
20,AACAGCAA,0.238
21,CGCCAAGC,-0.295
22,ACACACGC,-0.0211
23,AACCGTGA,-0.093
24,CTTACCCC,-0.339
25,ACTTGTTG,0.0271

row,Sequence,PBM E-score
1,CTCAGAAA,0.0132
2,AAGAGACG,-0.0648
3,AGTACGCA,-0.0488
4,CGGCTCTA,-0.0755
5,CAGACTAA,-0.0508
6,AAGGAGTG,-0.00953
7,ATGTACCG,0.0208
8,ACCAATAT,0.261
9,AAGGAGGC,-0.226
10,ATAGAATA,0.248
11,CAAGACCA,-0.0729
12,CCCCCTCG,-0.32
13,GTCTGCTA,0.0776
14,ATTATGGG,-0.0375
15,CATGACGC,-0.176
16,ACTTCTGC,0.076
17,AAGATATA,0.323
18,ATCTATCA,0.302
19,CCTGTGTA,0.112
20,CTGCAACA,0.104
21,AGAGCAAA,0.00797
22,CCAAGAGG,-0.0521
23,CAGGAGAG,-0.0582
24,AGGGTGTC,-0.186
25,AGAGATAC,0.0158

row,Sequence,PBM E-score
1,GTACGTAC,-0.00634
2,GCAAAACA,0.0364
3,GTCATTCA,0.155
4,AATACTAT,0.231
5,CCCTCGAC,-0.246
6,ACCCGTAA,0.0246
7,CGCGGGGA,-0.236
8,CGTCGGCC,-0.0879
9,ATGACAAG,-0.0461
10,GACTTGGC,-0.1
11,GAGCCTTA,-0.0865
12,CGCATTAC,0.0602
13,GCTGCACC,-0.242
14,GAGGCCGC,-0.219
15,AACTGTAA,0.226
16,CCCGGAAC,-0.0597
17,ATCTCATA,0.0709
18,AGAGCTTA,0.0318
19,CTACCATC,-0.048
20,CGGACCCG,-0.24
21,CGGGCTTA,-0.139
22,ACCTCATC,-0.146
23,AAAAGAGC,-0.0295
24,CGTAACTA,0.194
25,ATGTAGGA,-0.1

row,Sequence,PBM E-score
1,ATCGACAT,0.0755
2,CGGTTTTC,0.13
3,AGTATATC,0.213
4,CGTTCGGC,-0.0341
5,GGCTACCC,-0.351
6,GGATCCGA,-0.013
7,ATTATCTA,0.233
8,ACCCGGAC,-0.0659
9,AAAAAACA,0.242
10,GTTATGCA,0.0477
11,GACATGTC,-0.193
12,GAAGGCGA,-0.0975
13,ATCATACC,0.0727
14,ATATACTA,0.243
15,CCTGCCTA,-0.0166
16,AGTTGTTG,0.123
17,CAGAGCGG,-0.107
18,CCCGTGTA,0.0512
19,CCTGAGAA,0.0675
20,TCAGTCGA,0.128
21,AAGAAACG,0.0616
22,GTCGCCTA,-0.138
23,AGCGAGCA,-0.0357
24,CCACGGAC,-0.338
25,CGAGCCAA,-0.135

row,Sequence,PBM E-score
1,CTCGCTCC,-0.141
2,AAATCAAC,0.108
3,ACACCAGG,-0.00768
4,AATACGCA,-0.0366
5,ACGCGGGC,-0.131
6,AGGTATTC,0.114
7,CAAGTCCC,-0.126
8,GTGGGACA,-0.189
9,ATGTCCAC,0.00091
10,ATCCTATA,0.137
11,CACTGAAA,0.00244
12,GACCGTAC,-0.301
13,CGATAATC,0.0636
14,ACGTCACC,-0.083
15,ACCTTCAC,-0.0347
16,ATATTATC,0.265
17,GCAAGGGA,-0.00383
18,GATTACAC,0.131
19,AGCGGGTG,-0.11
20,CATAGCCA,0.0385
21,AGTCGCTA,-0.0247
22,CTAGGCCC,-0.332
23,AGCTGTGG,-0.22
24,CGCTGTTC,-0.199
25,CTGTTTGA,0.135

row,Sequence,PBM E-score
1,GACTTCGC,-0.0815
2,AGTCCCTG,-0.097
3,CCCTAGAC,-0.16
4,AATGTAGG,-0.163
5,AGTTTTAA,0.268
6,AGGCTACG,-0.266
7,GCGCGAAA,0.11
8,ACCGAACG,-0.0975
9,GCTCGGAA,0.037
10,CCTAAACG,0.00042
11,GCTCCCTA,-0.286
12,GTAAAAAC,0.198
13,CAAATCCC,-0.111
14,CATATCCA,-0.144
15,AACAGGCT,-0.038
16,CACAAGAC,-0.159
17,CTGTCCGA,-0.165
18,ATGGATCA,0.0922
19,CCTGTGGC,-0.324
20,AAGCCTGG,-0.0832
21,CAGAACAC,-0.146
22,GCGCTAGA,-0.0551
